Laboratory results as given in PubChem BioAssay AID624172 (National Center for Advancing Translational Sciences (NCATS), 2012).
Hit rate of the full screen: of about 380,000 compounds, about 25 (0.007%) were called active. Inconclusive means that the source gave no clear call. Such entries were picked first, then a sample of the others. The call rests on the fitted dose curve; in most records, active means well fitted activation curve with a large enough effect; inconclusive means small, poorly fitted or top-dose-only effect; inactive means no such curve, though single readings can be large or run the other way. Potencies of inconclusive entries are left out as doubtful fits.

molecular target: Glucagon-like peptide 1 receptor (Homo sapiens) (UniProt P43220); assay: qHTS of GLP-1 Receptor Agonists; details: HEK293 GLP-1R CRE-luciferase, luminescence, 4-6 h, cells express a hypersensitive GLP-1R form; series mostly up to 45.6 µM
Potency means the concentration at half of the fitted maximal effect; tags describe the fitted curve by direction and shape.

Chain of UniProt P43220 (P43220 whole entry, looked up): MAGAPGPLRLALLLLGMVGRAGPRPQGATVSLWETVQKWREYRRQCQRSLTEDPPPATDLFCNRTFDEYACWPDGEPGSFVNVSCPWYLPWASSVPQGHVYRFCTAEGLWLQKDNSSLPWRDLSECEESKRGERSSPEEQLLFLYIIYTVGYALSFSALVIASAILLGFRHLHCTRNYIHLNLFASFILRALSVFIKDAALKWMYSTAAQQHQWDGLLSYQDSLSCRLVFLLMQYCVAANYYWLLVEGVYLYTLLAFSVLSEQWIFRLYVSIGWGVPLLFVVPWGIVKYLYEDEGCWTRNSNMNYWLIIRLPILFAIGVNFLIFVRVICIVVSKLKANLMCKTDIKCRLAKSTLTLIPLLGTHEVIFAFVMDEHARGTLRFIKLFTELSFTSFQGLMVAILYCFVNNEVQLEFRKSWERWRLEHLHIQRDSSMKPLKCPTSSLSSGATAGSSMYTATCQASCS

Row | Compound | Potency
1 | COc1ccc(-c2cc(C(F)F)n3ncc(C(=O)N4CCc5ccccc5C4)c3n2)cc1 | inconclusive [activator, partial curve]
2 | CNc1nc(Cl)nc(NC(C)(C)C)n1 | inconclusive [activator, partial curve]
3 | c1ccc(Cn2nnc3c(NCC4CCCO4)nc(C4CC4)nc32)cc1 (configuration not stated) | inconclusive [activator, single point]
4 | COc1ccc(/C=N/N(C)C2=NS(=O)(=O)c3ccccc32)cc1OC | inconclusive [activator, full curve]
5 | Cc1cccn2c(=O)nc(SCC(=O)N3CC(C)OC(C)C3)nc12 (configuration not stated) | inactive
6 | COc1ccc(CCN(C)Cc2ccc(OCc3ccccc3)c(OC)c2)cc1OC | inconclusive [activator, single point]
7 | CN1CCN(C(=O)c2cccc(NS(=O)(=O)c3ccc(Br)cc3)c2)CC1 | inconclusive [activator, single point]
8 | CCCCCCn1c(SCC(C)C)nc2c1c(=O)[nH]c(=O)n2C | inconclusive [activator, full curve, poor fit]
9 | CC(=O)c1ccc(-c2cnc3c(NC=O)cc(-c4cnn(C)c4)cn23)cc1 | inactive
10 | C=CCn1c(-c2cnn(-c3ccccc3)c2N)n[nH]c1=S | inactive
11 | CCOc1ccc(CC(=O)OCn2nnc3ccccc3c2=O)cc1 | inconclusive [activator, single point]
12 | C=CCNc1oc(-c2cccs2)nc1C#N | inconclusive [activator, partial curve, poor fit]
13 | Cn1nc(-c2ccc(N3CCN(CCO)CC3)c([N+](=O)[O-])c2)c2ccccc2c1=O | inconclusive [activator, partial curve, poor fit]
14 | COc1ccc(COC[B-](F)(F)F)cc1 | inconclusive [activator, partial curve, poor fit]
15 | Cc1cccc(CN(CC(=O)N/N=C/c2cccs2)S(=O)(=O)c2ccc(Cl)cc2)c1 | inactive
16 | COc1ccc(OCc2nnc3n2N=C(c2ccc(OC)cc2)CS3)cc1 | inconclusive [activator, partial curve]
17 | Cc1ccsc1-c1nc(CN2CCN(C)C(=O)[C@@H]2C)c(C)o1 | inconclusive [activator, single point]
18 | O=C(NC(=S)Nc1ncccn1)c1ccc(F)cc1 | inactive
19 | Cc1cc(Cl)c2oc(C(=O)N(C)CC3CCOCC3)c(C)c2c1 | inconclusive [activator, single point]
20 | Cc1sc(NC(=O)CSc2nc(N)n(CC(=O)c3ccccc3)n2)c(C#N)c1C | inconclusive [activator, partial curve, poor fit]
21 | CCOc1ccc(Cc2nc(N)nc(N)n2)cc1 | inconclusive [activator, single point]
22 | N/C(Cc1ccc(Cl)cc1Cl)=N\OC(=O)c1ccccc1 | inconclusive [activator, single point]
23 | COc1ccc(N2CCc3c(C)nc(SC)nc32)cc1 | inconclusive [activator, partial curve]

Row | Compound | Potency
24 | COc1ccccc1N(CC(=O)NCc1cccnc1)S(C)(=O)=O | inactive
25 | CN(C)S(=O)(=O)c1cccc(-c2cn3cc(Cl)ccc3n2)c1 | inconclusive [activator, partial curve]
26 | COCC1CCCCN1C(=O)c1ccc(OC2CCN(Cc3ccccn3)CC2)cc1 (configuration not stated) | inconclusive [activator, single point]
27 | COc1cc2c(cc1OC)-c1cc(Nc3ccccc3Br)nc(=O)n1CC2 | active: 8.91 µM
28 | CCOc1ncccc1C(=O)OCc1ccc(C(=O)OC)o1 | inconclusive [activator, partial curve, poor fit]
29 | O=C(COC(=O)C1CC1)Nc1ncc(Cl)cc1Cl | inconclusive [activator, single point]
30 | CN(C)S(=O)(=O)c1cccc(NC(=S)N/N=C/c2ccc(O)c(O)c2O)c1 | inactive
31 | COc1ccc(-c2cc(C(=O)NCC(c3ccccc3)N(C)C)c3ccccc3n2)cc1OC (configuration not stated) | inconclusive [activator, partial curve, poor fit]
32 | CC(C)NC(=O)c1ccc(COc2ccc(C(C)(C)C)cc2)o1 | inconclusive [activator, single point]
33 | C/C(=N\NC(=O)Cc1ccc(Cl)cc1)c1ccccc1O | inconclusive [activator, single point]
34 | N#Cc1sc2nc3c(c(-c4ccco4)c2c1N)CCCC3 | inconclusive [activator, single point]
35 | O=c1c2ccccc2nc(-c2ccco2)n1Cc1ccccc1 | inconclusive [activator, partial curve]
36 | O=C1C(F)=CC(COC(c2ccccc2)(c2ccccc2)c2ccccc2)OC1n1cc(F)c(=O)[nH]c1=O (configuration not stated) | inactive
37 | CC(=O)c1ccc(NC(=O)c2ccccc2Sc2ncnc3sc(C)c(C)c23)cc1 | inconclusive [activator, partial curve, poor fit]
38 | CCCOc1ccc(C(=O)NCC(c2cccs2)N(C)C)cc1 (configuration not stated) | inactive
39 | COc1ccc(C(C)=O)cc1CSCc1cc(C(C)=O)ccc1OC | inconclusive [activator, single point]
40 | COc1ccc(Cn2c(=O)sc3ccccc3c2=O)cc1 | inconclusive [activator, partial curve, poor fit]
41 | Cc1cc2c(cc(C(=O)OCC(=O)NCc3cccs3)n2C(C)C)o1 | inconclusive [activator, partial curve]
42 | CC(C)(C)OC(=O)[C@H](Cc1ccccc1)NC(=O)c1ncn2c1c(=O)[nH]c1ccc(Br)cc12 | inactive
43 | CCn1c(=N)n(CC(=O)C(C)(C)C)c2ccccc21 | inconclusive [activator, single point]
44 | COc1ccc(-n2c(SCC#N)nnc2-c2ccc(NS(=O)(=O)c3ccc(C)cc3)cc2)cc1 | inconclusive [activator, full curve, poor fit]
45 | Cc1ccc(CNc2ccc(O)cc2)cc1 | inconclusive [activator, partial curve]
46 | O=C(Oc1ccnc2cc(Cl)ccc12)N1CCCCCC1 | inconclusive [activator, single point]

Row | Compound | Potency
47 | CC(=O)Oc1cc(C)c(OC(C)=O)c2ccccc12 | inconclusive [activator, full curve, poor fit]
48 | CCN(c1ccccc1)S(=O)(=O)c1ccc(C(=O)Nc2cccc(NC(C)=O)c2)cc1 | inactive
49 | Cc1ccnc(NC(=O)c2sc3cc(Cl)ccc3c2Cl)c1 | inactive
50 | CC(C)CCCCCCCCCCCCC(=O)NCC(=O)NC1C(C)OC(Nc2ncnc3nc[nH]c23)C(O)C1O (configuration not stated) | inactive
51 | Cc1ccc(O)c(NC(=O)C2CC(c3cccc(Br)c3)=NO2)c1 (configuration not stated) | inconclusive [activator, partial curve, poor fit]
52 | CN(Cc1ccc(Cl)cc1)C(=O)COC(=O)CSc1ccc([N+](=O)[O-])cc1 | inactive
53 | CCOC(=O)c1c(C)oc2c1c(C(c1ccncc1)N1CCOCC1)c(O)c1ccccc12 (configuration not stated) | inconclusive [activator, single point]
54 | CCOc1cc(C2C(C(=O)OC)=C(C)N=C3SCCC(=O)N32)ccc1OC(C)=O (configuration not stated) | inconclusive [activator, partial curve, poor fit]
55 | c1ccc(OCCNc2ccn3nc(-c4ccco4)cc3n2)cc1 | inconclusive [activator, partial curve, poor fit]
56 | COc1ccc(NC(=O)C2(C)Cc3c(-c4ccc5c(c4)OCO5)ccnc3O2)cn1 (configuration not stated) | inconclusive [activator, single point]
57 | CCOc1ccc(NC(=O)CN2CC(c3ccccc3)CC2=O)cc1 (configuration not stated) | inactive
58 | CCOc1ccc(-c2nc(N)ncc2Oc2ccc(OC)cc2)c(O)c1 | inconclusive [activator, partial curve, poor fit]
59 | COc1ccc(NC(=O)C2(C)CCN2Cc2ccc(SC)cc2)cc1OC (configuration not stated) | inconclusive [activator, single point]
60 | Cc1ccc(N2CC(C(=O)N3CCCCC3)CC2=O)cc1C (configuration not stated) | inactive
61 | COc1ccc(-c2sc3cc(OC)c(OC)cc3c2C#CC2(O)CCCCC2)cc1 | inconclusive [activator, partial curve, poor fit]
62 | Cc1ccc(-c2cc(NC=O)c3ncc(-c4cnn(C)c4)n3c2)cc1 | inconclusive [activator, partial curve]
63 | COC(=O)c1c(-c2ccncc2)csc1NC(=O)c1ccoc1C | inconclusive [activator, partial curve]
64 | CCn1c(=NC(=O)c2cccc(N3C(=O)CCC3=O)c2)sc2c(C)ccc(OC)c21 | inconclusive [activator, full curve, poor fit]
65 | Cc1nnnn1/C(=C\c1ccccc1)C(=O)OCC(=O)N(C)C1CCS(=O)(=O)C1 (configuration not stated) | inactive
66 | N#Cc1ncc(C(F)(F)F)cc1Sc1ccc(N)cc1 | inconclusive [activator, partial curve]
67 | CCOC(=O)N1CCN(C(=S)NC2CCCCC2)CC1 | inconclusive [activator, partial curve, poor fit]
